Reference: publication PMC10163088
No constants are given. Whether binding was seen depends on the method and setting. In cells and extracts the contact can be indirect. Some binding calls cover weakened binding; strength is not graded here. Tags and fused reporters may be left off the sequences shown.

Columns and labels:
[1] = biological target: T1, GST-Rox1 (full-length) (S. cerevisiae) (UniProt P25042); experiment: pull-down; GST fusions of full-length repressors immobilised on GSH sepharose, incubated with protein extracts from yeast transformants containing epitope-tagged Sin3 length variants; anti-HA blot (Fig. 2); only the target purified
T1 sequence: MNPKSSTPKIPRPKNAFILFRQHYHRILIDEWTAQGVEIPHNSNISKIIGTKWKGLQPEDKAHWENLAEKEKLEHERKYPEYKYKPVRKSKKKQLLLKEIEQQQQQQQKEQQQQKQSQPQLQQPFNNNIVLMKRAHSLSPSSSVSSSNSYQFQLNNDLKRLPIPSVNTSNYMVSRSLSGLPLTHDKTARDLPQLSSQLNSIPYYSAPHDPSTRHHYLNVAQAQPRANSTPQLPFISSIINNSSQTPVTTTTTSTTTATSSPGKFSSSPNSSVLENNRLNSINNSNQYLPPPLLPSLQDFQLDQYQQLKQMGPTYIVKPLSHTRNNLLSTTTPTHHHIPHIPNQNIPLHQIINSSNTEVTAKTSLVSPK

[2] = biological target: T2, GST-Rdr1 (full-length) (S. cerevisiae) (UniProt Q08904); experiment: as above
T2 sequence: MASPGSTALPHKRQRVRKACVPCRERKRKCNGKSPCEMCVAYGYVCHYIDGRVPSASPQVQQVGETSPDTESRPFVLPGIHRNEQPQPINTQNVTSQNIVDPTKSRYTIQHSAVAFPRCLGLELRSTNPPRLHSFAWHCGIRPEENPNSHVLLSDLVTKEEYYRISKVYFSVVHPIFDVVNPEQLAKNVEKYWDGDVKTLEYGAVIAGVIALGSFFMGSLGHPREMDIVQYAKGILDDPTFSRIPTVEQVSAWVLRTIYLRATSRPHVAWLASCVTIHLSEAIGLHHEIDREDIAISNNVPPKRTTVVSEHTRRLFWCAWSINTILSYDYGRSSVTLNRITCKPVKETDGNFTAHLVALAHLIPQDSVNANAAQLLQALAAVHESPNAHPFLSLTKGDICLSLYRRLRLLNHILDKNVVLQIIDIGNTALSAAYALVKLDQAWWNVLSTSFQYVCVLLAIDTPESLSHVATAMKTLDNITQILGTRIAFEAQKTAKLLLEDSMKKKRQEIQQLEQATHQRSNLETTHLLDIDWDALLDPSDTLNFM

[3] = biological target: T3, GST-Xbp1 (full-length) (S. cerevisiae) (UniProt P40489); experiment: as above
T3 sequence: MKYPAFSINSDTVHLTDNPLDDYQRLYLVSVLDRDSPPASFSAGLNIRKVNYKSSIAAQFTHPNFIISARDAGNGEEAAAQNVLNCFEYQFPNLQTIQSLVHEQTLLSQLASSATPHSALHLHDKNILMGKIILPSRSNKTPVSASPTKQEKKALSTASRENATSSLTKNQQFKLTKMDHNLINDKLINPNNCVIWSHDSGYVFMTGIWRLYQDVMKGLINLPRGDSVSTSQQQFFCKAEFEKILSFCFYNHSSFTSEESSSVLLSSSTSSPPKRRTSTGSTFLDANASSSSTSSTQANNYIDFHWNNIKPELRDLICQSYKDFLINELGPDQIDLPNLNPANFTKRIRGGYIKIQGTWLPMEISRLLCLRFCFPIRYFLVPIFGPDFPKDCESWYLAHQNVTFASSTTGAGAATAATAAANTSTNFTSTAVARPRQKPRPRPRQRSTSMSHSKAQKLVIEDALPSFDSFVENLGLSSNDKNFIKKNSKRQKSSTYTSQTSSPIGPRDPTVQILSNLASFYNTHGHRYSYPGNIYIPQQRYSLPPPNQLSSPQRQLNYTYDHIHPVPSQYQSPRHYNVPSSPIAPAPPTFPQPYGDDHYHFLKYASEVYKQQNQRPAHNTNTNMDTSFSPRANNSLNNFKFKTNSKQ

[4] = biological target: T4, GST-Opi1 (full-length) (S. cerevisiae) (UniProt P21957); experiment: as above
T4 sequence: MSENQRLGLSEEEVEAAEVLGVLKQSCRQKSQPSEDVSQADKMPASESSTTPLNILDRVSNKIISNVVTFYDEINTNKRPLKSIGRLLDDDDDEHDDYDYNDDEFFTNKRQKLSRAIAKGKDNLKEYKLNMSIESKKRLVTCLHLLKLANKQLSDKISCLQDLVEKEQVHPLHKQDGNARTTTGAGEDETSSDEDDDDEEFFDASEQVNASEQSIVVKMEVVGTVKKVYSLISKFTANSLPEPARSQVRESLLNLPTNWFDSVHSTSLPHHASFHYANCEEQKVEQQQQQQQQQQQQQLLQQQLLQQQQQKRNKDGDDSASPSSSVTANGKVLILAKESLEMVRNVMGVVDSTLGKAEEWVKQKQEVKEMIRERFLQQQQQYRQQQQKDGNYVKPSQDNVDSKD

[5] = biological target: T2, GST-Rdr1 (full-length) (S. cerevisiae); experiment: pull-down; GST fusions of repressors (full-length or length variants) immobilised on GSH sepharose, incubated with bacterial total protein extracts containing HA-tagged Sin3, Cyc8 or Tup1 (or Tup1 length variants); elution with free GSH, anti-HA blot (Figs. 1, 3, 4, 5); only the target purified
[6] = biological target: T5, GST-Whi5 (full-length) (S. cerevisiae) (UniProt Q12416); experiment: as above
T5 sequence: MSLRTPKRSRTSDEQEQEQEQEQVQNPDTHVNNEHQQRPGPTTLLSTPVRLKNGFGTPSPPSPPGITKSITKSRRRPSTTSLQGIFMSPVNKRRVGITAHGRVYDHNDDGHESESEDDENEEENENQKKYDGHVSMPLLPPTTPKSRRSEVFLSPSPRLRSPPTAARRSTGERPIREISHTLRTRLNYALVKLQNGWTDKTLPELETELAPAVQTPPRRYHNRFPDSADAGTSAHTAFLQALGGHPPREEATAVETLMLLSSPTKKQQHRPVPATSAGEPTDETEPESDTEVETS

Measured: binding

epitope-tagged Sin3 length variant 301-600 (PAH2; pYJ91) (from UniProt P22579 301-600) (domain or fragment)
binds: [1] | [2] | [3] | [4]

HA3-Sin3 (full-length, aa 1-1536; pSW11) (from UniProt P22579 1-1536)
binds: [5] | [6]

B1: epitope-tagged Sin3 length variant 1-300 (PAH1; pCW83) (domain or fragment, UniProt P22579 1-300)
chain: MSQVWHNSNSQSNDVATSNDATGSNERNEKEPSLQGNKPGFVQQQQRITLPSLSALSTKEEDRRDSNGQQALTSHAAHILGYPPPHSNAMPSIATDSALKQPHEYHPRPKSSSSSPSINASLMNAGPAPLPTVGAASFSLSRFDNPLPIKAPVHTEEPKSYNGLQEEEKATQRPQDCKEVPAGVQPADAPDPSSNHADANDDNNNNENSHDEDADYRPLNVKDALSYLEQVKFQFSSRPDIYNLFLDIMKDFKSQAIDTPGVIERVSTLFRGYPILIQGFNTFLPQGYRIECSSNPDDPI
binds: [1] | [2] | [3] | [4]
